Results as given in PubChem BioAssay AID504339 (National Center for Advancing Translational Sciences (NCATS), 2011).
“And” between values parts separate entries of the source, which are not always exact repeats. Equal entries are not always repeated. Hit rate of the full screen: of about 390,000 compounds, about 17,000 (4.4%) were called active. Inconclusive results, whose numbers are uncertain, are shown with a selection of clear calls. The call rests on the fitted dose curve; in most records, active means well fitted inhibition curve with a large enough effect; inconclusive means small, poorly fitted or top-dose-only effect; inactive means no such curve, though single readings can be large or run the other way. Potencies beside an inconclusive call are fits to weak or partial responses and may not hold up.

target: Lysine-specific demethylase 4A (Homo sapiens) (UniProt O75164); assay: qHTS Assay for Inhibitors of JMJD2A-Tudor Domain; settings: AlphaScreen JMJD2A-Tudor / H3K4me3 peptide binding; activity change, negative = inhibition: at 114 µM (top of the series); further: nearly all actives have a fitted effect of over 50% in size
On the % scale 0 is the no-effect control and ±100 the full control effect; potency means the concentration at half of the fitted maximal effect; tags describe the fitted curve by direction and shape.

UniProt O75164, sequence (O75164 whole entry, looked up, the tested form may be a part): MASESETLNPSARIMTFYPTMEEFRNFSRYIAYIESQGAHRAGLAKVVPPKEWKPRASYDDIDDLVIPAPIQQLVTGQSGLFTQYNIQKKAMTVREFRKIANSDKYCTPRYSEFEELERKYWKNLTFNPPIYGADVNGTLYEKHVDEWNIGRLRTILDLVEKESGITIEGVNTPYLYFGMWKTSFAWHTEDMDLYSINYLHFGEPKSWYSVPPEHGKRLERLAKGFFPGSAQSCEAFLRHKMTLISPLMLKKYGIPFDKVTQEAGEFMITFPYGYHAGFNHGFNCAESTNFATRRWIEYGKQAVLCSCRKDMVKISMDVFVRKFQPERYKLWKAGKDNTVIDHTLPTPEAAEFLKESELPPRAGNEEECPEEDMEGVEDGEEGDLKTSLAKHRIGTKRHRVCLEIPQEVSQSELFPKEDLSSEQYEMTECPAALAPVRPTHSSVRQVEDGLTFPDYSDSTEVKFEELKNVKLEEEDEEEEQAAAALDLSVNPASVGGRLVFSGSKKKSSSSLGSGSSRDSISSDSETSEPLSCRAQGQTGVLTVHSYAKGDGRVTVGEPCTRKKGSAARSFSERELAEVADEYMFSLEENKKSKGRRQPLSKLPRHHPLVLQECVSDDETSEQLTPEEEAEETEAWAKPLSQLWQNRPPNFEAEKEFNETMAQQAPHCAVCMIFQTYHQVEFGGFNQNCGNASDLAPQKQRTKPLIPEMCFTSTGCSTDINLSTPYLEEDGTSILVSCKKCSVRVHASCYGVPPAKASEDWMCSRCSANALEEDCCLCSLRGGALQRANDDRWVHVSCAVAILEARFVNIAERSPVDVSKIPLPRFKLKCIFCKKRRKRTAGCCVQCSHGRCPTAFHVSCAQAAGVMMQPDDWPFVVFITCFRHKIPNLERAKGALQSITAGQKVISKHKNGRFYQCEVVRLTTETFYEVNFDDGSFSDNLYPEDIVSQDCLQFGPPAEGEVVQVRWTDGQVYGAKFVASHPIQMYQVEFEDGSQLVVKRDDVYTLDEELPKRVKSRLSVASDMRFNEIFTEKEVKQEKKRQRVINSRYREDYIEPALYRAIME

Potency, active:
CN1CCN(c2ccc(C(=O)c3ccc(Br)cc3)cc2[N+](=O)[O-])CC1 22.4 µM
CCC(C)NCCOc1ccc(C(C)(C)c2ccccc2)cc1 (stereo not given) 2.82 µM
Cc1csc(NC(=O)c2nc3nc(C)cc(C)n3n2)n1 79.4 µM
CCCCn1cnc2c(=S)nc(N)[nH]c21 11.2 µM
O=C(O)c1ncn(Cc2ccccc2)c1C(=O)O 6.31 µM
COc1cc2c(cc1OC)C(=Cc1ccc(N(C)C)cc1)C=C2 10 µM
CN(C)c1ccc(NC(=O)c2ccc(COc3cccc(Cl)c3)o2)cc1 12.6 µM
O=C(OCc1ccccc1)N1CCC2CC1c1cc(N3CCCCC3)ccc12 (stereo not given) 28.2 µM

Potency, inconclusive:
CCn1c(C)c(C)c2cc(C(=O)NCCCN3CCCCC3C)ccc21 (stereo not given) 56.2 µM [inhibitor, partial curve] and 100 µM [inhibitor, single point]
O=[N+]([O-])c1ccc(C2=Nc3cc(Cl)ccc3OC2)cc1 4.47 µM [inhibitor, full curve]
Cc1ccc(NC(=S)c2nc3ccccc3[nH]2)cc1 50.1 µM [inhibitor, partial curve]
CN1CCN(c2ccc([N+](=O)[O-])c(Sc3nc4ccccc4[nH]3)c2)CC1 56.2 µM [inhibitor, partial curve, poor fit]
O=C(N/N=C/c1c[nH]c2ccc(Br)cc12)c1ccc2c(c1)OCO2 50.1 µM [inhibitor, partial curve]
c1ccc(COc2ccc(OCCN3CCCC3)cc2)cc1 39.8 µM [inhibitor, single point]
Cc1c(-c2nc(-c3cccnc3)no2)cccc1[N+](=O)[O-] 39.8 µM [inhibitor, single point]
NC(=O)[C@@H]1CC2(CC(c3cccc(NC(=O)CC(c4ccccc4)c4ccccc4)c3)=NO2)CN1C(=O)c1ccc(Cl)cc1 (stereo not given in full) 25.1 µM [inhibitor, partial curve]
CC1Cc2ccccc2N1CC(=O)Nc1ccc2c(c1)OC(F)(F)O2 (stereo not given) 100 µM [inhibitor, single point]
Cc1ccsc1C(=O)NNC(=O)COc1ccc(Br)cc1 100 µM [inhibitor, single point]
COc1ccccc1C(=O)Nc1ccc2c(c1)CCCN2C(=O)c1ccccc1 22.4 µM [inhibitor, full curve]
O=C(NCCCN1CCc2ccccc2C1)C1CCN(c2nnc(-n3cccc3)s2)CC1 14.1 µM [inhibitor, full curve, poor fit]
CCCCCCC(=O)Nc1nc(C)c(-c2csc(Nc3ccc(Cl)cc3)n2)s1 14.1 µM [inhibitor, partial curve]
Cc1ccc(-c2cc[n+](Cc3ccccc3)cc2)cc1 22.4 µM [inhibitor, partial curve]
Cc1nc(SCC(=O)Nc2ccc3[nH]c(=O)[nH]c3c2)nc(C)c1C 44.7 µM [inhibitor, partial curve, poor fit]
CCc1cc(-c2n[nH]c(C)c2-c2nc(C)cs2)c(O)cc1OC 50.1 µM [inhibitor, partial curve]
O=C(/C=C/c1ccco1)Nc1ccc(F)cc1 79.4 µM [inhibitor, partial curve]
CCc1ccc(S(=O)(=O)Nc2ccc(O)c3c(=O)cc(-c4ccccc4Cl)oc23)cc1 28.2 µM [inhibitor, partial curve]
O=C1c2cccc3c(N4CCOCC4)c([N+](=O)[O-])cc(c23)C(=O)N1c1cccc2ccccc12 8.91 µM [inhibitor, partial curve]
Cc1nn(-c2ccccc2)c2nc(=O)n(-c3ccccc3)cc12 3.16 µM [inhibitor, single point]
COc1ccc(NC(C)C(=O)Nc2ccc(C#N)cc2)cc1Cl (stereo not given) 44.7 µM [inhibitor, partial curve]
CCOc1ccc(NC(=S)N2CCC(C(O)(c3ccccc3)c3ccccc3)CC2)cc1 31.6 µM [inhibitor, single point]
O=C1C=C(Nc2ccc(O)cc2)C(=O)c2ccccc21 11.2 µM [inhibitor, full curve, poor fit]
COc1ccccc1CN(Cc1cc2cc(C)ccc2[nH]c1=O)Cc1nnnn1Cc1ccco1 56.2 µM [inhibitor, partial curve]
COc1ccc(-c2nnc(SCC(=O)Nc3cc(OC)ccc3OC)nc2-c2ccc(OC)cc2)cc1 8.91 µM [inhibitor, full curve]
CCOC(=O)c1c(NC(=O)/C=C/C(=O)O)sc(C)c1-c1ccc(C(C)(C)C)cc1 79.4 µM [inhibitor, partial curve]
COc1cc2c(cc1OC)C1CC(=O)C(CC(C)C)CN1CC2 (stereo not given) 2.51 µM [inhibitor, partial curve, poor fit]
COc1ccc(C(CC(=O)N2CCN(c3ccccc3)CC2)c2c(OC)cc(OC)c3ccc(=O)oc23)cc1 (stereo not given) 15.8 µM [inhibitor, full curve] and 44.7 µM [inhibitor, partial curve]
CCN(N=O)c1ccc(C=C2C=Cc3ccccc32)cc1 6.31 µM [inhibitor, full curve]
O=C(NC1CCCCC1)c1cc([N+](=O)[O-])[nH]n1 25.1 µM [inhibitor, single point]
COc1ccc(-c2cc(C(=O)O)[nH]n2)cc1OC 100 µM [inhibitor, single point]
O=C(N/N=C\c1ccc(-c2ccccc2[N+](=O)[O-])o1)C1COc2ccccc2O1 (stereo not given) 31.6 µM [inhibitor, partial curve]
COc1ccc2[nH]c(O)c(N=O)c2c1 89.1 µM [inhibitor, single point]
O=C(Nc1ccc2c(c1)OCCO2)C1CCN(c2nnnn2-c2ccccc2)CC1 89.1 µM [inhibitor, single point]
COc1ccc(OC)c(-c2noc(N3CCN(c4ccc(Cl)cc4)CC3)n2)c1 44.7 µM [inhibitor, partial curve]
S=c1[nH]nc(-c2cccs2)n1/N=C/c1cn(-c2ccccc2)nc1-c1ccc(Cl)cc1 56.2 µM [inhibitor, partial curve]
CC1CCCC(NC(=O)CCS(=O)(=O)c2ccc3c(c2)NC(=O)CS3)C1C (stereo not given) 39.8 µM [inhibitor, single point]
Cc1ccc([C@@H]2CC=C(C(=O)O)[C@H](c3ccc(Br)cc3)N2S(=O)(=O)c2ccc(C)cc2)cc1 79.4 µM [inhibitor, single point]
N#CCCN(C(=O)c1ccc2c(=O)n3c(nc2c1)CCCCC3)c1ccccc1 12.6 µM [inhibitor, full curve, poor fit]
Cc1ccc(N2C(=O)C(Cl)=C(N3CCOCC3)C2=O)cc1Cl 100 µM [inhibitor, single point]
COc1ccc(-c2c(C)nn3c(N4CCCCCC4)cc(C)nc23)cc1OC 89.1 µM [inhibitor, partial curve, poor fit]
COc1ccc(CCNC(=O)c2ccc3c(c2)N(Cc2ccccc2)CCS3)cc1OC 11.2 µM [inhibitor, full curve, poor fit]
Cc1ccc(C(=O)N2CCn3c4c(c5cc(C)ccc53)CCCC42)cc1 (stereo not given) 15.8 µM [inhibitor, full curve]
CC1(C)CC(=O)/C(=N/Nc2ccc(Cl)cc2)CO1 44.7 µM [inhibitor, partial curve]
Cc1ccc(SCC(c2ccccc2)N2CCN(CCc3ccccc3)CCC2=O)cc1 (stereo not given) 25.1 µM [inhibitor, full curve]
Cc1ccc(NC(=O)c2oc3c(c2C)-c2[nH]ncc2CC3)c(Cl)c1 56.2 µM [inhibitor, partial curve]

Activity change, negative = inhibition, inactive:
COC(=O)c1cc(OC)c(OC)cc1NC(=O)CCCCCN1C(=O)CCC1=O 17.1% [at 11.4 µM]
COc1cc(C(=O)N(Cc2ccc(F)cc2)Cc2ccco2)cc(OC)c1OC -28.3%
CCN(CC(=O)Nc1c(F)cccc1F)C(=O)c1ccc(COc2ccccc2)o1 -19.3%
COc1ccccc1N1C(=O)c2ccccc2NC1c1ccc(O)cc1 (stereo not given) 2.54%
O=C1C2C3c4ccccc4C(c4ccccc43)[C@@H]2C(=O)N1c1nc(-c2ccccc2)cs1 (stereo not given in full) -14.1%
Cc1sc(NC(=O)C2CCCCC2C(=O)O)c(C(N)=O)c1-c1ccccc1 (stereo not given) -16%
O=C(Cc1ccccc1)Nc1ccc(NC(=O)c2cccnc2)cc1 -11%
N#Cc1ccccc1NC(=O)C(=O)NCCc1csc(-c2ccc(C(F)(F)F)cc2)n1 2.9%
CCc1nc2ccc(C(=O)NCCc3ccc(OC)cc3)cc2nc1CC 8.78%
CC(C)(Cc1ccccc1)NC(=O)C(=O)c1cn(CC(=O)N2CCOCC2)c2ccccc12 -18.2%
Cc1sc2nc(CN3CCCC3)nc(Cl)c2c1C -12.2%
